According to paper PMC3844262 (Journal of immunology (Baltimore, Md. : 1950), 2013):

Tested on: peptide-pulsed B6 splenocyte targets in acute LCMV-infected mice
Parameters: species or system C57BL/6 (B6) mice
Conditions: mouse, iv

In the case of STNLFNNL [VV-E7R], the “Specific lysis of peptide-pulsed targets in vivo (four peak assay)” value was “no killing was observed”.
